Source: PubChem BioAssay AID1347073 (National Center for Advancing Translational Sciences (NCATS), 2019)
The whole screen tested about 45,000 compounds, of which about 200 (0.44%) were called active. Another 7% or so got no clear call; they are omitted. Calls follow the shape of the dose curve; as a rule, active = well fitted activation curve with a large enough effect; inconclusive = small, poorly fitted or top-dose-only effect; inactive = no such curve, though single readings can be large or run the other way. Some of the results follow.

Test: qHTS of TDP-43 Inhibitors: NCGC Sytravon Library Screen; also: 0% is about no effect; nearly all actives have a fitted effect of over 55% in size
Conditions: yeast TDP-43 toxicity rescue, BacTiter-Glo growth, 24 h; series mostly up to 46.1 µM; growth rescue (activation): at the top concentration
How it was run: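 TDP-43-expressing yeast, pregrown in raffinose, seeded at OD600 0.02 in galactose medium with compound for 24 hr at 30 deg C. Growth read by BacTiter-Glo luminescence, so rescue of toxicity appears as activation.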

Row | SMILES | growth rescue (activation)
1 | CN(CCc1ccccn1)C(=O)CCC1CCCN(C(=O)c2ccc3c(c2)OCCO3)C1 (stereo not drawn) | inactive: 2.36%
2 | O=C(O)c1cc([N+](=O)[O-])cc2c1C=Cc1ccccc1O2 | inactive: 2.65%
3 | CC(/C=N/NC(=O)c1sc(N)nc1C)=C\c1ccccc1 | inactive: 10.5%
4 | O=C(CC1C(=O)NCCN1CC1CCCCC1)NC1(c2ccccc2)CC1 (stereo not drawn) | inactive: -20%
5 | CCCCn1c(=O)[nH]c(=O)c2c1nc(Cn1ncc(Cl)c(Cl)c1=O)n2CCC | inactive: 0.677%
6 | COc1ccccc1/C=C/C=C(\C#N)C(=O)NC(C)c1ccccc1 (stereo not drawn) | inactive: -17.3%
7 | Cc1csc(N(C(=O)c2ccccc2F)c2ccccc2)n1 | inactive: -3.55%
8 | O=C(Nc1ccc(NC(=O)c2ccco2)c(Cl)c1)c1ccc2c(c1)OCCO2 | inactive: 4.28%
9 | Cc1ccccc1NC(=S)N1CCCC1 | inactive: 15.9%
10 | COc1ccc(NC(=O)c2csc3c2CCCCC3)cc1 | inactive: 18.8%
11 | O=C1C=CC(=O)N1CCCCCCN1C(=O)C=CC1=O | inactive: -93.8%
12 | COc1ccc(C(NC(C)=O)c2c(O)ccc3ccccc23)cc1OC (stereo not drawn) | inactive: 2.46%
13 | COc1ccc(S(=O)(=O)N2CCCCCC2)cc1C(=O)OCC(=O)NC(C)(C)C | inactive: 8.85%
14 | Cc1cc(C(=O)NCC(c2ccco2)N(C)C)ccc1[N+](=O)[O-] (stereo not drawn) | inactive: 5%
15 | NC(=O)C1CCN(CC(=O)NC2CCCc3ccccc32)CC1 (stereo not drawn) | inactive: 3.24%
16 | Cc1c(NC(=O)c2ccc(N(Cc3ccccc3)S(C)(=O)=O)cc2)c(=O)n(-c2ccccc2)n1C | inactive: -2.99%
17 | BrC(/C=N/N1CCN(Cc2ccccc2)CC1)=C/c1ccccc1 | inactive: 13.7%
18 | CCOc1ccc(S(N)(=O)=O)cc1-c1nc2c(C(C)(C)C)nn(C)c2c(=O)[nH]1 | inactive: 19.8%
19 | CC(=O)OCC1=C(C(=O)O)N2C(=O)C(NC(=O)c3ccc(COc4c(C)cccc4Cl)o3)C2SC1 (stereo not drawn) | inactive: 11.8%
20 | COc1ccc(C(=O)OCC(=O)N2CC(=O)Nc3ccccc32)cc1Br | inactive: 13.6%
21 | CNC(=O)N(c1ccccc1)c1ccccc1 | inactive: 21%
22 | CCc1ccc(N2C(=O)C3CCCN3C2=S)cc1 (stereo not drawn) | inactive: 9.41%
23 | NC(=O)c1ccc(C(F)(F)F)cn1 | inactive: -3.67%
24 | Cn1cc(CN2CCCC(C(=O)c3cc(F)ccc3F)C2)c2ccccc21 (stereo not drawn) | inactive: -2.05%
25 | Cc1cc2oc(=O)cc(CN(C)Cc3ccccc3Cl)c2cc1C | inactive: -10.3%
26 | CCOC(=O)Cc1nnc(NC(=O)C23CC4CC(CC(C4)C2)C3)s1 | inactive: 0.231%
27 | CCOC(=O)c1c(NC(=O)C2CC2)sc2c1CC(C)(C)OC2 | inactive: 1.49%

Row | SMILES | growth rescue (activation)
28 | CCC(C)CNC(=O)c1cccc(OC2CCN(CC(C)(C)C)CC2)c1 (stereo not drawn) | inactive: -9.7%
29 | CCCc1nnc(NC(=O)C2CC(=O)N(CCc3ccc(F)cc3)C2)s1 (stereo not drawn) | inactive: -2.26%
30 | O=C(COC(=O)C1COc2ccccc2O1)NC(=O)Nc1ccc2c(c1)OCCO2 (stereo not drawn) | inactive: 10%
31 | COc1cc(/C=C/C(=O)OC(C)C(=O)Nc2c(C)n(C)n(-c3ccccc3)c2=O)ccc1OCC#N (stereo not drawn) | inactive: -10.8%
32 | CC1CCCCC1NC(=O)/C(C#N)=C/c1ccccc1F (stereo not drawn) | inactive: -72%
33 | CN1C(=O)Cc2cc(S(=O)(=O)Nc3ccc(Cl)cc3)ccc21 | inactive: -11.5%
34 | O=C(O)COc1ccccc1C(Nc1ccccn1)c1cc(Cl)c2cccnc2c1O (stereo not drawn) | inactive: 10.3%
35 | O=C1Nc2ccccc2Oc2cc([N+](=O)[O-])ccc21 | inactive: 33.3%
36 | CC1CCCCN1C(=O)CSc1nnc(-c2ccccc2F)o1 (stereo not drawn) | inactive: -0.928%
37 | CC1=CC(C)=Nc2ccc(C)cc2N1 | inactive: 8.31%
38 | CCOC(=O)C1(C)CCCN1C(=O)c1cccc2ccccc12 (stereo not drawn) | inactive: 10.7%
39 | COc1ccc(C(=O)CC(=O)C(=O)Nc2ccc(C)c(C)c2)cc1 | inactive: -29.4%
40 | Cc1ccc(NC(=O)c2cc([N+](=O)[O-])ccc2N2CCCC2)cc1 | inactive: 12.9%
41 | Cc1n[nH]c(=O)n1-c1ccc(OCc2ccccc2)cc1 | inactive: 2.65%
42 | C=CCNS(=O)(=O)c1ccc(C(=O)OCc2cc(=O)oc3cc(OC)ccc23)cc1 | inactive: 5.77%
43 | COc1ccc(C(=O)c2oc3ccccc3c2NC(=O)COc2ccccc2)cc1 | inactive: 10.7%
44 | CC(C)NC(=O)NC(=O)COC(=O)Cc1c(F)cccc1Cl | inactive: 11.8%
45 | S=C(Nc1ccc(Br)cc1)NC1CCCCC1 | inactive: 37.2%
46 | CCCS(=O)(=O)NC(=O)C1(C)CCN(C(=O)c2ccc(OC(F)F)cc2)C1 (stereo not drawn) | inactive: -8.09%
47 | C=CCN1CCN(C(CCC)c2nnnn2Cc2ccco2)CC1 (stereo not drawn) | inactive: 6.46%
48 | Cc1cc(C(=O)Nc2ccccc2C)on1 | inactive: -8.13%
49 | CC(C)OC(=O)c1cccc(-c2ccc(C=O)o2)c1 | inactive: -13.4%
50 | Cc1cc(C)n2nc(SC(C)C(=O)Nc3ccccc3F)nc2n1 (stereo not drawn) | inactive: 7.17%
51 | Cc1ccccc1Nc1nccc(N(C)C)c1C#N | inactive: 8.19%
52 | CC(=O)NC(Cc1ccc(F)cc1)C(=O)NC1CCN(S(=O)(=O)c2ccccc2)CC1 (stereo not drawn) | inactive: 13.9%
53 | CC(C)NC(=O)C1(C)CCCN1C(=O)c1ccc2c(c1)C(C)(C)CCC2(C)C (stereo not drawn) | inactive: 15.4%
